From PubChem BioAssay AID651820 (National Center for Advancing Translational Sciences (NCATS), 2012)
About 12,000 (3.5%) of roughly 340,000 compounds were called active. The inconclusive results got no clear call from the source; some entries with a clear call stand among them for comparison. Calls come from the whole dose curve; as a rule, active = well fitted inhibition curve with a large enough effect; inconclusive = small, poorly fitted or top-dose-only effect, or another doubt; inactive = no such curve, though single readings can be large or run the other way. No potency is given beside an inconclusive call; the fits are too rough.

test: qHTS Assay for Inhibitors of Hepatitis C Virus (HCV); conditions: Huh7.5.1 HCVcc-Cre (HCVcc is cell-culture hepatitis C virus) infection, luciferase reporter, 44 h; activity change, negative = inhibition: at 41.8 µM (top of the series) unless noted
Method in brief: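 Cells seeded at 1,000/well and cultured 4 h, then compounds added followed by HCVcc-Cre virus (~0.5 moi). After 44 h further culture, luciferase substrate was added, plates held 15 min at room temperature, and luminescence read for 15 sec.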
% is set by controls: 0 for no effect and ±100 for the full control effect; potency is the fitted concentration of half-maximal effect; tags give direction and shape of the fitted curve.

Compound	activity change, negative = inhibition	Potency
COc1ccc(C2C(C(=O)Nc3cc(C)on3)c3ccccc3C(=O)N2C)cc1 (stereo not given)	inactive: 1.88%	–
CCN(C[C@H]1N[C@@](CC)(C(=O)OC)[C@H]2C(=O)N(C)C(=O)[C@@H]12)S(=O)(=O)c1ccc(C(C)(C)C)cc1	–	inconclusive [inhibitor, single point]
COc1ccc(NC(=O)c2ccc(CNc3c(NC4CCCCC4)c(=O)c3=O)cc2)c(OC)c1	–	inconclusive [inhibitor, partial curve]
CCO[C@@H]1OC(C(=O)NCc2nc3ccccc3[nH]2)=C[C@H](C2CC2)[C@H]1CCCO	–	inconclusive [inhibitor, partial curve, poor fit]
CCOCCSc1nc2c(c(-c3cccs3)c1C#N)CC/C2=C/c1cccs1	–	inconclusive [inhibitor, partial curve]
Cc1cc(N)ccc1-n1nc2ccccc2n1	inactive: 4.9%	–
O=C(Nc1ccc(Oc2ncccn2)cc1)c1ccco1	inactive: 6.84%	–
CN1C[C@@H]2[C@@H]3C(=O)N(C)C(=O)[C@@H]3[C@](C)(C1=O)N2C(=O)c1ccc(Cl)cc1	inactive: 11%	–
Oc1ccc(NC(=S)Nc2ccccc2)cc1	–	inactive
CCOC(=O)CSC1=C(C#N)C(c2ccc(C)o2)CC(=O)N1 (stereo not given)	–	inconclusive [inhibitor, full curve]
CC(=O)c1cc(NC(=O)c2ccc(Cl)cc2)c(=O)oc1/C=C/N(C)C	–	inconclusive [inhibitor, single point]
COc1ccc(OCc2cc(=O)c3ccc4c(c3o2)C=CC(C)(C)O4)cc1OC	–	inconclusive [inhibitor, partial curve]
C/C(=N\NC(=O)c1ccc(CN2CCOCC2)cc1)c1cccc([N+](=O)[O-])c1	–	inconclusive [inhibitor, partial curve]
Cc1cc(C(=O)O)cc(S(=O)(=O)Nc2ccccc2C(=O)NC2CC2)c1C	inactive: 10.4%	–
COc1cccc(C2c3c(oc4ccccc4c3=O)C(=O)N2CCCN2CCOCC2)c1 (stereo not given)	–	inconclusive [inhibitor, single point]
CCOC(=O)CNC(=O)c1cc(-c2ccccn2)nc2c(C)c(Cl)ccc12	inactive: -10.5%	–
CCOc1ccc(OCCC(=O)OCC(=O)Nc2cccc(S(=O)(=O)N3CCCCC3)c2)cc1	–	inconclusive [inhibitor, single point]
CCOC(=O)C1=C(C)NC(=O)NC1c1ccccc1OCc1c(F)cccc1Cl (stereo not given)	–	inconclusive [inhibitor, partial curve]
CC(=O)Nc1ccc(NC(=O)c2ccc(COc3ccccc3)cc2)cc1	inactive: 0.954%	–
CO/N=C(/CNC(=O)c1ccc(F)cc1)c1ccc(Cl)cc1	–	inconclusive [inhibitor, single point]
O=[N+]([O-])c1ccccc1/C=C\C=N\N1CCN(c2ccccc2)CC1	–	inconclusive [inhibitor, single point]
CSc1ccc(S(=O)(=O)N2CCC(C(=O)NCC3CCCO3)CC2)cc1 (stereo not given)	inactive: 10.3%	–
Cc1ccc2cc(NC(=O)c3ccc(C(C)(C)C)cc3)ccc2n1	–	inconclusive [inhibitor, single point]
O=C(CSc1nc(-c2ccccc2Cl)ns1)Nc1ccc2c(c1)OCO2	–	inconclusive [inhibitor, partial curve]

Compound	activity change, negative = inhibition	Potency
COc1cccc(Nc2nnc(SCc3cc([N+](=O)[O-])cc4c3OCOC4)s2)c1	–	active: 11.2 µM
CCOc1ccc(C2C(C(=O)c3cccs3)=C(O)C(=O)N2CCN2CCOCC2)cc1 (stereo not given)	inactive: -5.09%	–
CC1CCCCN1C(=O)COC(=O)C1CCN(S(=O)(=O)c2c(Cl)cccc2Cl)CC1 (stereo not given)	inactive: 25.8%	–
CCCCCn1c(SCCc2ccccc2)nc2c1c(=O)[nH]c(=O)n2C	–	inconclusive [inhibitor, single point]
CC1CCN(C(=S)c2ccc(-c3ccc(Cl)cc3Cl)o2)CC1	–	inconclusive [inhibitor, single point]
CCCc1cc(-n2cnc3ccccc32)n2c(nc3ccccc32)c1C#N	–	inconclusive [inhibitor, single point]
O=C1C=C(c2cc3ccccc3s2)CCC1	–	inconclusive [inhibitor, single point]
O=c1[nH]ncc(N/N=C\c2ccc(O)cc2O)c1Cl	inactive: 0.603%	–
CCCCn1c(SCC(=O)Nc2nc(C)cs2)nnc1-c1cccnc1	–	inconclusive [inhibitor, single point]
O=C(NNC(=O)c1cccc2ccccc12)c1ccc(-c2ccccc2)cc1	–	inconclusive [inhibitor, full curve]
O=C1N[C@@H](Cc2ccccc2)C(=O)N2[C@H]1C[C@]1([C@]34C[C@H]5C(=O)N[C@@H](Cc6ccccc6)C(=O)N5[C@H]3N(S(=O)(=O)c3ccccc3)c3ccccc34)c3ccccc3N(S(=O)(=O)c3ccccc3)[C@H]21	–	inconclusive [inhibitor, partial curve]
CN1C=C/C(=C\c2cc[n+](C)c3ccccc23)c2ccccc21	–	active: 4.47 µM
COc1cc(CSC)nc(-c2ccccc2)n1	–	inconclusive [inhibitor, single point]
CNc1nc(N)c([N+](=O)[O-])c(Nc2cccc(F)c2)n1	–	active: 22.4 µM
CN(C)CCOC1c2ccccc2CCc2ccc3ccccc3c21 (stereo not given)	–	inconclusive [inhibitor, full curve, poor fit]
O=C(CN(C(=O)CNS(=O)(=O)c1ccc(F)cc1)c1ccc(F)cc1)NCc1ccco1	–	inconclusive [inhibitor, single point]
O=C(c1cc2cc(F)ccc2[nH]1)N(Cc1cccnc1)CC1CCCN(C2CCCCC2)C1 (stereo not given)	–	inconclusive [inhibitor, single point]
CCOC(=O)/C(=C/c1ccc(N2CCC(c3ccccc3)=N2)cc1)C(C)=O	–	inconclusive [inhibitor, single point]
Oc1c(C=Nc2cccc3cccnc23)sc2ccccc12	–	inconclusive [inhibitor, single point]
COc1ccc(CNC(=O)COC(=O)c2c(C)nn(-c3ccccc3)c2C)cc1OC	–	inconclusive [inhibitor, single point]
COc1cccc(NC(=O)c2ccccc2-c2nc(-c3cccc(C)c3)no2)c1	–	inconclusive [inhibitor, single point]
N#C/C(=C\c1ccc(OC(F)F)cc1)C(=O)N1CCCCC1	inactive: 2.44%	–
CCN1CCN(CCCNC(=O)c2ccc(/C=C3/Oc4ccccc4N(Cc4cccc(C)c4)C3=O)cc2)CC1	–	inconclusive [inhibitor, single point]
COC(=O)c1c(NC(=O)c2cccnc2)sc(C(=O)N(C)C)c1C	inactive: 8.4%	–

Compound	activity change, negative = inhibition	Potency
COc1ccc(N2CCN(C(=O)Cc3coc4cc(C)ccc34)CC2)cc1	inactive: -8.92%	–
COc1ccc(CNC(=O)C(=O)NCCC2CCCCN2S(=O)(=O)c2cccs2)cc1 (stereo not given)	–	inconclusive [inhibitor, single point]
Cc1ccc2c(c1)-c1cc(C)nn1C(c1sccc1C)N2 (stereo not given)	–	active: 3.98 µM
COc1ccc(S(=O)(=O)NCc2ccccc2Cl)cc1OC	–	inconclusive [inhibitor, single point]
COc1cc(OC)cc(-c2c(-c3cccs3)c3cc(-c4ccc(C(N)=O)cc4)ccc3n2C)c1	–	inconclusive [inhibitor, full curve, poor fit]
Cc1ccc2sc(NC(=O)c3ccc(N4C(=O)CCC4=O)cc3)nc2c1C	–	inconclusive [inhibitor, full curve, poor fit]
O=C(CN1CCC(NC(=O)Cc2ccccc2)CC1)Nc1ccccc1Br	–	inconclusive [inhibitor, single point]
O=S(=O)(NC1CCCCCCC1)c1ccc(F)cc1	inactive: 1.74%	–
O=S1(=O)C=C(Oc2ccc(F)cc2)c2ccccc21	inactive: 11.7%	–
Cc1cc(C)c2ccc(/C=N/O)nc2c1O	–	inconclusive [inhibitor, full curve]
CCCCn1c2ccccc2c2nnc(SCC(=O)NC3=NN=C(c4ccccc4)CS3)nc21	inactive: -29.7%	–
Cc1ccc(/C=C2/NC(=O)N(Cc3ccc(Br)cc3)C2=O)o1	inactive: 0.197%	–
Cc1ccc(C(=O)c2c3ccccc3[n+]([O-])n2CCC(N)=O)cc1	inactive: 19.2%	–
CC(=O)N1Cc2ccccc2C(C)CC12CCCC2 (stereo not given)	–	inconclusive [inhibitor, single point]
CCOc1ccc(S(=O)(=O)N2CCCCC2)cc1NC(=O)Cc1ccsc1	–	inconclusive [inhibitor, partial curve, poor fit]
CCOC(=O)c1sc(NC(=O)CSc2nnc(C)s2)c(C(=O)OCC)c1C	–	inconclusive [inhibitor, full curve]
CCN(CC)CCCNC(=O)c1oc2ccc(S(=O)(=O)N3CC(C)CC(C)C3)cc2c1C (stereo not given)	–	active: 22.4 µM
NC(=O)c1c(NC(=O)C2CCCO2)sc2c1CCCC2 (stereo not given)	inactive: -3.03%	–
O=C(CNC(=O)c1cccc(F)c1)N/N=C/c1cc(Br)ccc1OC(=O)/C=C/c1ccco1	–	active: 7.94 µM
Cc1csc(NC(=O)CS(=O)(=O)Cc2ccccc2)n1	inactive: 7.69%	–
COc1cc(CNC(C)c2ccccc2)cc(Br)c1OCc1ccccc1 (stereo not given)	–	inconclusive [inhibitor, single point]
c1ccc2c(c1)OCC(c1csc3ncnc(N4CCCC4)c13)O2 (stereo not given)	–	inconclusive [inhibitor, single point]
